Measured values from the supplement of paper PMC12217912.
The other results are listed elsewhere or left out. Sequences were assembled here from the parent chain. Inactive controls read about 0.05.

B1: TEV protease; numbered along this chain (parent)
chain: MGESLFKGPRDYNPISSSICHLTNESDGHTTSLYGIGFGPFIITNKHLFRRNNGTLVVQSLHGVFKVKDTTTLQQHLVDGRDMIIIRMPKDFPPFPQKLKFREPQREERICLVTTNFQTKSMSSMVSDTSCTFPSGDGIFWKHWIQTKDGQCGSPLVSTRDGFIVGIHSASNFTNTNNYFTSVPKNFMELLTNQEAQQWVSGWRLNADSVLWGGHKVFMVKPEEPFQPVKEATQL

Variants of: B1
Test: raw area under fraction-flipped curve 0-4 h after induction (AUC4h, not background-subtracted), DNA-recorder readout of cleavage of the substrate (dimensionless); higher = more cleavage of the substrate by the protease variant
Conditions: temperature: 34 °C; time window: 0-4 h after rhamnose induction
Procedure: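 In vivo DNA recorder in E. coli TOP10(DE3) ΔrhaA at 34 °C. Each TEVp single-site mutant (parent TEVp 0) is paired with a single-site variant of the 7-mer TEVs (canonical ENLYFQ|S). The substrate sits between flexible linkers in a Bxb1-sfGFP-TEVs-SsrA fusion, so cleavage stabilises Bxb1 and speeds flipping of a recombination array, read by NGS. The value is the raw area under the fraction-flipped curve over 0-4 h after rhamnose induction (AUC4h), with ≥20 reads per time point. It is not background-subtracted; inactive controls average about 0.047.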
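Note: Bxb1 expression induced with 0.2% (w/v) L-rhamnose at OD600 near 0.5, cultures sampled hourly, flipped fraction per protease–substrate barcode pair counted by paired-end Illumina sequencing.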

Row | Variant | area with substrate ENLYFQA | area with substrate ENLYFQC | area with substrate ENLYFQE | area with substrate ENLYFQF | area with substrate ENLYFQH | area with substrate ENLYFQI | area with substrate ENLYFQK | area with substrate ENLYFQM | area with substrate ENLYFQN | area with substrate ENLYFQQ | area with substrate ENLYFQR | area with substrate ENLYFQS | area with substrate ENLYFQV | area with substrate ENLYFQW | area with substrate ENLYFQY | area with substrate ENLYFQG | area with substrate ENLYFQL | area with substrate ENLYFQP | area with substrate ENLYFQD | area with substrate ENLYFQT
1 | G39N | 0.0411 | 0.0494 | 0.0402 | 0.0389 | 0.0348 | 0.0364 | 0.037 | 0.04 | 0.0367 | 0.0389 | 0.0326 | 0.0429 | 0.0247 | 0.0399 | 0.0557 |  |  |  |  | 
2 | G39C | 0.0478 | 0.0535 |  | 0.0405 | 0.0502 | 0.0395 | 0.0609 | 0.0444 | 0.0426 |  | 0.0487 | 0.0458 | 0.0421 | 0.0423 |  | 0.0456 | 0.0416 | 0.0461 |  | 
3 | G39T | 0.0568 | 0.0319 |  |  | 0.0247 | 0.039 | 0.0403 | 0.031 | 0.0421 | 0.0488 | 0.0478 | 0.0473 | 0.0437 | 0.0403 | 0.0282 | 0.0465 | 0.0595 |  | 0.0329 | 
4 | I43W | 0.0593 | 0.082 | 0.0457 |  |  | 0.0508 |  | 0.0484 | 0.0271 |  |  | 0.0511 |  | 0.0202 |  | 0.0493 | 0.0475 | 0.0384 | 0.0568 | 
5 | I43F | 0.0892 | 0.0842 |  | 0.073 |  | 0.0586 | 0.0471 | 0.0768 | 0.0726 |  | 0.052 | 0.0778 |  | 0.0621 | 0.0593 | 0.0568 | 0.0432 | 0.0676 |  | 0.0617
6 | I43G | 0.0682 |  |  |  | 0.0437 | 0.046 | 0.0428 | 0.0527 | 0.0387 |  | 0.0375 | 0.0508 | 0.0359 |  | 0.051 | 0.0374 | 0.0433 | 0.0361 | 0.0252 | 0.0553
7 | G28K | 0.0689 | 0.108 | 0.0589 | 0.0689 |  | 0.0574 |  |  | 0.0828 |  | 0.0709 | 0.0822 | 0.0568 |  | 0.0635 | 0.0727 | 0.0792 |  | 0.078 | 0.0039
8 | I19N | 0.067 | 0.0634 |  |  | 0.0363 | 0.0535 | 0.0493 | 0.0805 | 0.0418 |  | 0.0513 | 0.0724 |  | 0.0577 | 0.0518 | 0.0548 |  | 0.0554 |  | 0.055
9 | I19S | 0.0912 |  |  |  |  |  |  |  | 0.074 |  | 0.0598 | 0.0952 |  | 0.0953 |  |  |  | 0.068 |  | 
10 | I19M | 0.0912 | 0.11 |  | 0.0782 | 0.0978 | 0.0619 | 0.0697 | 0.0713 | 0.078 | 0.0438 | 0.0589 | 0.107 | 0.0686 | 0.0828 | 0.073 | 0.105 | 0.0578 | 0.0682 |  | 0.0796
11 | S18E | 0.0863 | 0.15 |  |  |  | 0.0575 |  |  | 0.0747 |  | 0.0506 | 0.106 | 0.0585 | 0.0577 |  | 0.0708 | 0.0617 | 0.0703 | 0.0775 | 0.0669
12 | S26D | 0.0795 |  |  |  | 0.0818 | 0.0549 | 0.05 | 0.0824 | 0.0908 |  | 0.0544 | 0.0875 | 0.0627 |  |  | 0.029 | 0.043 |  | 0.0438 | 0.0674
13 | P9K | 0.0779 | 0.0857 |  |  |  | 0.0616 |  | 0.083 | 0.0694 |  | 0.0715 | 0.0972 | 0.0545 | 0.0749 |  | 0.0862 | 0.0662 |  | 0.07 | 
14 | P9Y | 0.164 | 0.111 | 0.0605 |  | 0.0786 | 0.0592 |  | 0.0922 | 0.098 | 0.0666 |  | 0.112 | 0.0638 | 0.0687 | 0.0817 | 0.11 | 0.0679 | 0.0428 |  | 0.0584
15 | S4W | 0.075 | 0.0843 |  | 0.0649 | 0.0723 | 0.0483 | 0.0857 | 0.0928 |  |  | 0.0637 | 0.0849 | 0.0673 | 0.0519 | 0.0619 |  | 0.0339 | 0.0769 | 0.0977 | 0.0617
16 | C20P | 0.0464 | 0.0563 | 0.0404 | 0.0581 | 0.0549 | 0.0466 | 0.0428 | 0.0503 | 0.0519 |  | 0.0492 | 0.0592 | 0.064 | 0.0484 | 0.0591 | 0.0279 | 0.0632 | 0.043 | 0.0485 | 0.0552
17 | P14G | 0.0941 |  |  | 0.07 | 0.0816 | 0.0518 | 0.0722 | 0.0897 | 0.0934 |  | 0.0613 | 0.105 |  | 0.0724 | 0.0763 | 0.0936 | 0.0435 | 0.0649 |  | 0.0777
18 | P14N | 0.0825 | 0.109 | 0.0608 |  | 0.0705 | 0.0554 | 0.0595 | 0.0827 |  |  | 0.0585 | 0.0885 | 0.0659 | 0.0663 | 0.0735 |  | 0.0576 |  |  | 
19 | P14D | 0.108 | 0.119 |  |  | 0.0516 | 0.0638 | 0.0434 | 0.0869 | 0.0924 | 0.0694 | 0.0507 | 0.101 |  | 0.081 | 0.0755 | 0.0905 | 0.0786 |  | 0.0715 | 0.0626
20 | T31S | 0.112 | 0.128 |  | 0.0876 | 0.0901 | 0.071 |  | 0.103 | 0.0841 | 0.0593 | 0.0641 | 0.104 | 0.0766 | 0.0827 | 0.0938 | 0.0815 | 0.0763 |  | 0.0868 | 0.0864
21 | T31N | 0.125 |  |  | 0.0847 |  | 0.0701 | 0.0639 | 0.0914 | 0.075 |  | 0.0588 | 0.0904 | 0.0742 | 0.0788 | 0.0771 | 0.0745 | 0.0604 | 0.0632 | 0.0808 | 0.0692
22 | T31K | 0.075 | 0.0639 |  |  |  | 0.0549 | 0.072 | 0.0566 |  |  | 0.0453 | 0.0694 | 0.0717 | 0.0651 | 0.054 |  | 0.0502 |  | 0.0424 | 0.0528
23 | G2D | 0.0774 |  |  |  | 0.0795 |  | 0.0659 | 0.0887 | 0.0769 | 0.062 | 0.0598 | 0.0959 |  | 0.0424 | 0.0742 | 0.127 |  |  | 0.0585 | 0.0602
24 | P40Y | 0.112 | 0.106 |  | 0.077 | 0.079 | 0.0523 | 0.0614 | 0.0881 | 0.0798 | 0.0637 | 0.0617 | 0.101 | 0.0607 | 0.0671 | 0.0962 | 0.108 | 0.0639 | 0.0606 | 0.0602 | 0.0761
